From the supplement of paper PMC3334620
The full ranking holds about 33,000 sequences; the median of “E-score (-0.5 to 0.5)” is about -0.021, and the highest 2% start at about 0.32. Some of the results follow.

The sequences below were run against T1, Zap1 (UniProt P47043) (assay: PBM E-score (8-mer binding enrichment) (E-score (-0.5 to 0.5)); higher = stronger / more preferred TF binding; most listed sequences are background and not binding sites). Settings: protein concentration: 200 nM; construct: GST-full length.
T1 sequence: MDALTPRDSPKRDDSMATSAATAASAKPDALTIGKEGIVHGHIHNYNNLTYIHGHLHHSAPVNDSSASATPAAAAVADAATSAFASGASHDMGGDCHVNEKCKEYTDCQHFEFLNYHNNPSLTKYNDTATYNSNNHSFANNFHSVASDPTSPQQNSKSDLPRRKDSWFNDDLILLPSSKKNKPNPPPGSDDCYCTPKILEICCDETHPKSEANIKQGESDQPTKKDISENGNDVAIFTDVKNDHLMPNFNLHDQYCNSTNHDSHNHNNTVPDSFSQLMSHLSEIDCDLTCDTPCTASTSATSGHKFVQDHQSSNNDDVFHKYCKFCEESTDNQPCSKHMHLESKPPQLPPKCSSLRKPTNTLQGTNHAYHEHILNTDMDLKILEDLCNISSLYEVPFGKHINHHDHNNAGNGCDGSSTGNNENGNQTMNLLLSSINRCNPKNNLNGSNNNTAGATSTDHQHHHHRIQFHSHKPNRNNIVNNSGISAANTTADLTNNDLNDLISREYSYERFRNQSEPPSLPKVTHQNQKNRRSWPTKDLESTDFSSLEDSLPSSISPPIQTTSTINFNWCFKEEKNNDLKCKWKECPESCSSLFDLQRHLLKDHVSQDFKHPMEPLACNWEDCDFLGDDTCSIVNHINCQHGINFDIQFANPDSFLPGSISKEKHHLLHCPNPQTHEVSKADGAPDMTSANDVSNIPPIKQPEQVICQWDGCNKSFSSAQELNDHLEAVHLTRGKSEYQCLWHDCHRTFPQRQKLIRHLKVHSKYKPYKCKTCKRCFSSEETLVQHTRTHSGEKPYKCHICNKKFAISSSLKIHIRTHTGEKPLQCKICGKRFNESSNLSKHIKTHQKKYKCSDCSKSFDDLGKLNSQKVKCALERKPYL
How it was run: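 GST-tagged yeast TFs (full-length or DNA-binding domain) were made by PURExpress in vitro transcription/translation and applied at about 100-200 nM to universal all-10-mer Agilent arrays. The arrays were made double-stranded by primer extension, on fresh or once-stripped slides. Bound protein was detected with fluorescent anti-GST, and scans were normalised with masliner. Each ungapped eight-base word, pooled with its reverse complement, received an E-score (modified Wilcoxon-Mann-Whitney statistic) from the Universal PBM Analysis Suite.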

Row | Sequence | PBM E-score
1 | CTCCTAAG | -0.153
2 | AGGGGCCG | -0.0406
3 | ATGCATTG | 0.00167
4 | CGCGATAA | 0.201
5 | CAGATGGA | 0.0614
6 | ACTACACA | -0.0197
7 | ATGAAAAC | 0.234
8 | TGACAGAA | 0.0424
9 | AACAGGTC | 0.167
10 | ATGTCTGC | -0.116
11 | AACGACCC | 0.191
12 | GCACTATA | -0.094
13 | GTCCATTA | 0.124
14 | CCCGGAGC | -0.0735
15 | TCGCGTCA | -0.134
16 | CATCTCCG | -0.0726
17 | AAGCCACA | 0.0484
18 | CCCACTCC | -0.13
19 | ATTCTTCC | -0.235
20 | GCACACCA | -0.0829
21 | CCGCCATA | -0.00973
22 | AAGTTTTA | 0.214
23 | GTTCGAAA | 0.134
24 | ATAGGTTC | 0.138
25 | AACCCCCT | -0.187

Row | Sequence | PBM E-score
26 | CGTTATCA | 0.0155
27 | CTTATGAA | 0.0314
28 | TACAGTAA | 0.0576
29 | ATTACATG | 0.137
30 | ATGACGGG | -0.0936
31 | CATGGAAG | 0.0211
32 | AAGCAATC | -0.00425
33 | AAAGTAGC | -0.0277
34 | ACTCTGTA | 0.0505
35 | AGAACTCC | -0.13
36 | GAGGTTGC | 0.238
37 | GTGGGGTA | 0.368
38 | ACTCGTTG | 0.0081
39 | AACATGAA | 0.016
40 | TGTTCGAA | 0.0467
41 | GAAATCGA | -0.0672
42 | CCCTTCGA | 0.00585
43 | AGAATCCT | -0.19
44 | TAGTGTCA | -0.048
45 | AGCTTCAA | -0.0714
46 | TCCCGGAA | 0.0179
47 | ATTTTAAC | 0.2
48 | ATTCACCC | -0.0639
49 | AAGACAGC | -0.174
50 | CGAGAGAA | -0.0531

Row | Sequence | PBM E-score
51 | CTCGTTTC | -0.0619
52 | CCGTAATA | 0.0379
53 | CGAGGCAC | -0.231
54 | GGAATTAC | 0.0274
55 | AATAGGAT | 0.0662
56 | CGCTCTCA | -0.222
57 | TACGTTGA | -0.0752
58 | GCTGAACC | -0.0457
59 | AAGATTCC | 0.0451
60 | ATGAAATC | 0.0985
61 | GGAGTACC | 0.228
62 | ACACCCGA | 0.173
63 | CCAATGAA | -0.0107
64 | CCCCCTAC | -0.32
65 | CGTGTATC | -0.0249
66 | ACCACTGA | 0.142
67 | ATATAGTC | 0.0822
68 | GGAACCGA | -0.0122
69 | AGTATATG | 0.0652
70 | CATTGACA | -0.0917
71 | CCCTCGTA | 0.111
72 | AGGGCGTG | -0.0776
73 | CGCCCGGC | -0.316
74 | CCAACGCG | 0.0335
75 | AACGCCAT | -0.0354

Row | Sequence | PBM E-score
76 | ATGACCAT | 0.293
77 | CACGAAGG | 0.0742
78 | AACGACGT | -0.171
79 | CTGCATGA | -0.167
80 | CCCGGCGA | -0.312
81 | CCCCTAAC | 0.232
82 | CATCACAG | -0.0928
83 | ACGCGAGA | 0.0934
84 | GCAAACGA | 0.0409
85 | CTATCTTC | -0.0696
86 | GAGCAAAC | -0.0725
87 | AGGACTAT | -0.165
88 | GAAGCGGA | -0.0787
89 | AGAGAACA | -0.0594
90 | ACATAGCC | -0.0651
91 | ATTCCCGC | 0.0634
92 | CCCGCTGA | -0.141
93 | AGGAGCCG | -0.2
94 | CCCTATTC | 0.0428
95 | AGGCAGAG | -0.198
96 | AACTATTC | -0.028
97 | TGTGGAAA | 0.0425
98 | ATCTTTTC | -0.0462
99 | ACTCCACC | -0.128
100 | GGTGGTCA | 0.341

Row | Sequence | PBM E-score
101 | AGTTATTG | 0.234
102 | CACCTCGC | -0.187
103 | CAAGCGTA | -0.219
104 | AAGCCCTA | -0.108
105 | CTTAACAC | 0.0174
106 | CCCTGCAA | 0.0695
107 | ACGGGAGT | -0.0426
108 | CCCATAGG | 0.129
109 | CACATTCC | 0.0768
110 | CCTTGGCA | -0.177
111 | GTATCAAA | 0.0561
112 | ATGCGCGC | 0.0706
113 | ACTTAAAA | 0.167
114 | GTTATCGA | 0.165
115 | ACGGTTGC | 0.117
116 | AAGGGGCC | 0.0742
117 | CTGGCCAA | -0.153
118 | CGGCTATC | -0.141
119 | CGGCAGTA | -0.239
120 | AGGTAGAG | -0.055
121 | ACAGCGAC | -0.152
122 | ATTCCCGG | 0.0087
123 | AGAAAATA | 0.13
124 | CACGTGGG | -0.175
125 | CCCGGTCC | 0.047

Row | Sequence | PBM E-score
126 | AAAAATAA | 0.228
127 | TTAAGAAA | 0.0591
128 | GCTCAAGC | -0.181
129 | CCGTAGAA | -0.182
130 | ACCGCGAC | 0.24
131 | AAGCTTGC | -0.153
132 | GGACGCTA | -0.15
133 | GGCCCATA | -0.0394
134 | CCGATCGA | -0.0537
135 | AGTCACGC | -0.2
136 | ATACGGAA | 0.0528
137 | CTAGATAG | 0.0146
138 | ACCTGCCT | -0.202
139 | TCCCAGGA | -0.172
140 | GATAGAAA | 0.0479
141 | AAATCTTC | -0.0762
142 | GAATTCCA | 0.0941
143 | CCTAAGAG | 0.109
144 | ACTTGGGC | 0.0183
145 | AGAGAACC | 0.0338
146 | TGGCCCCA | -0.102
147 | ATCTTGCA | 0.119
148 | CCGGACAC | -0.0512
149 | GAAGCACC | -0.14
150 | CCGTGCAG | 0.029

Row | Sequence | PBM E-score
151 | GACTACTC | -0.184
152 | CTCGCCGA | -0.179
153 | AGTATAAT | 0.105
154 | ACGTGTAC | -0.092
155 | CAATCCAA | 0.0784
156 | AGGCGTTA | 0.0407
157 | ATCGGATC | -0.214
158 | CAAAGATA | 0.0414
159 | TACTACCA | 0.124
160 | CGTCCAGA | -0.322
161 | GCATATCC | -0.12
162 | CGAATTCG | -0.233
163 | GAACGCGA | -0.0568
164 | AGAGCAGA | -0.196
165 | CGCGCACC | 0.00053
166 | ATATGTAC | 0.169
167 | ACCGTATA | -0.00063
168 | ATAGAAAA | 0.0702
169 | AAGCCGCT | -0.214
170 | AGACGGAT | 0.0316
171 | CAGAGGCA | -0.0607
172 | ACTCTCAC | 0.0136
